Reference: PubChem BioAssay (NCATS)
Several values for one entry are separate records, joined by “and”; a condition that tells them apart may be missing. Identical values can stand only once. Inconclusive results, whose numbers are uncertain, are shown with a selection of clear calls. Potencies of inconclusive entries are doubtful fits and often do not repeat. Activity calls are given as the source filed them. The call rests on the fitted dose curve; in most records, active means well fitted cell-killing curve with a large enough effect; inconclusive means small, poorly fitted or top-dose-only effect; inactive means flat fitted curve, though single readings scatter.

experiment: qHTS of pediatric cancer cell lines to identify multiple opportunities for drug repurposing: Primary screen for BT-37 cells (AID 1347094); conditions: BT-37 viability, CellTiter-Glo luminescence, 48 h; series mostly up to 57.3 µM
Method in brief: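 Primary screen of approved and investigational compounds on cells in growth media at 37 degrees C, 5% CO2. MIPE set at 11-point and NPC set at 8-point dilutions; viability scored by ATP-based luminescence at 48 hours.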
Potency means the concentration at half of the fitted maximal effect; tags describe the fitted curve by direction and shape.

| SMILES | Potency |
| --- | --- |
| COc1ccc(Cc2nccc3cc(OC)c(OC)cc23)cc1OC | inconclusive: 15.5 µM [cytotoxic, partial curve] and inconclusive: 24.3 µM [cytotoxic, partial curve] |
| CC(C)(C)c1cc(C=C(C#N)C#N)cc(Br)c1O | inconclusive: 24.3 µM [cytotoxic, partial curve] |
| O=S(=O)(CC1CS1)c1ccc(Oc2ccccc2)cc1 (stereo unspecified) | active: 19.3 µM |
| O=S(=O)(F)Cc1ccccc1 | inconclusive: 21.7 µM [cytotoxic, partial curve, poor fit] |
| Cn1cc(C2=C(c3cn(C4CCN(Cc5ccccn5)CC4)c4ccccc34)C(=O)NC2=O)c2ccccc21 | inconclusive: 24.3 µM [cytotoxic, partial curve] |
| C#C[C@]1(O)CC[C@H]2[C@@H]3CCC4=CC(=O)CCC4=C3C=C[C@@]21CC | inconclusive: 38.9 µM [cytotoxic, partial curve, poor fit] |
| C=C[C@@H]1CN2CCC1C[C@H]2[C@H](O)c1ccnc2ccccc12 (stereo partly specified) | inconclusive: 27.3 µM [cytotoxic, single point] |
| O=C(O)CCCc1ccc(N(CCCl)CCCl)cc1 | inconclusive: 38.9 µM [cytotoxic, single point] and inconclusive: 24.3 µM [cytotoxic, partial curve] |
| C=CCC1(C(C)CC)C(=O)NC(=O)NC1=O (stereo unspecified) | inactive |
| NCC1(CC(=O)O)CCCCC1 | inactive |
| CN1C[C@H](CNC(=O)OCc2ccccc2)C[C@@H]2c3cccc4c3c(cn4C)C[C@H]21 | inconclusive: 24.6 µM [cytotoxic, single point] |
| Oc1ccc2[nH]cc(CCCCN3CC=C(c4ccccc4)CC3)c2c1 | inconclusive: 24.6 µM [cytotoxic, partial curve, poor fit] |
| CCCN(CCC)CCc1c[nH]c2ccccc12 | inactive |
| O=C1C=CC[C@@H]2[C@H]3CCCN4CCC[C@@H](CN12)[C@@H]34 | inconclusive: 21.7 µM [cytotoxic, partial curve] |
| CCCCCCCCCC(CC)c1ccc(S(=O)(=O)O)cc1 (stereo unspecified) | inconclusive: 89.3 µM [cytotoxic, single point] |
| CNCC(O)c1ccc(O)cc1 (stereo unspecified) | inactive |
